# Measurements taken from the BET-seq Pho4 binding data (Le et al. 2018).
# The other results are listed elsewhere or left out. Values were computed here from the reads of four pooled replicates and scatter widely.
# Target: T1, Pho4 (S. cerevisiae) (UniProt P07270)
# T1 sequence: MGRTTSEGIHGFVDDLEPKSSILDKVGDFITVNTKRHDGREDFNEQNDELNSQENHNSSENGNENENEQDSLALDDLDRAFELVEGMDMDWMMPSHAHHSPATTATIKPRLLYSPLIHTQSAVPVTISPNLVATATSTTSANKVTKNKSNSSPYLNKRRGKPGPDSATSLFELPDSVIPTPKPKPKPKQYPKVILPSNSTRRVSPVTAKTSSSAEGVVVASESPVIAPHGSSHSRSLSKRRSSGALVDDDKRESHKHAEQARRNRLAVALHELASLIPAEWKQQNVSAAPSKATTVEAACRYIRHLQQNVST
# Test: relative binding free energy (BET-seq); higher = weaker binding
# Details: reference: library average
row,Sequence,relative binding free energy [kcal/mol]
1,ATCTGCACGTGTTGTA,-0.05
2,AATGCCACGTGGTATG,-0.2
3,GAATGCACGTGGAAGG,0.14
4,TTGGTCACGTGGGCAC,0
5,GGAGGCACGTGGAATT,0.17
6,TGCAGCACGTGGGTTA,-0.34
7,TAAAACACGTGGTAGT,-0.06
8,GTTACCACGTGATGTG,0.06
9,GTAATCACGTGGTTCA,0.22
10,TGTTCCACGTGGTCTG,-0.08
11,TCTTGCACGTGGTTTG,-0.14
12,TTCGGCACGTGATGTA,-0.03
13,ATTGACACGTGGGTTT,-0.11
14,CGGATCACGTGTTTTT,0.21
15,AGTGGCACGTGGCCGG,-0.26
16,TTGATCACGTGATTTC,0.28
17,ATTGGCACGTGGTGTA,-0.23
18,GGTCGCACGTGGCAGG,-0.08
19,ATGGTCACGTGCAGTG,0.07
20,TCGGTCACGTGTATTA,-0.04
21,ATGAACACGTGTTGGC,0.09
22,GTAAGCACGTGGGTGC,-0.32
23,GTTGACACGTGCGTGA,0.08
24,CGTTACACGTGATAGT,0.28
25,TAGTGCACGTGTTATC,-0.01

row,Sequence,relative binding free energy [kcal/mol]
1,AATGACACGTGTGTGG,0.12
2,TGATCCACGTGGGTGT,-0.11
3,TAGATCACGTGGTTCT,0.12
4,GGTCGCACGTGTATTG,-0.15
5,TTATCCACGTGTTGGT,-0.04
6,TTGAACACGTGGGATA,-0.11
7,TTTTCCACGTGAGGGT,0.35
8,TTGCTCACGTGTGATT,0.43
9,GGTGTCACGTGTGACT,0.16
10,ATTATCACGTGGAGAT,0.06
11,GCACGCACGTGGTTTG,0.04
12,TGCGTCACGTGGAGTG,0.14
13,TTCGCCACGTGTAGTG,0.1
14,TGTTTCACGTGACATG,0.36
15,CGTGCCACGTGTGAGT,-0.1
16,GTGATCACGTGGTGAT,0.13
17,TGGGGCACGTGGACTC,-0.04
18,TGGGTCACGTGAAACG,0.28
19,CGTTCCACGTGTATGG,0.06
20,GTAATCACGTGTTAGT,0.22
21,AATTTCACGTGGTCAG,0.15
22,TCAGGCACGTGGTCTG,-0.17
23,ACTAGCACGTGGGGGC,-0.05
24,TGTTTCACGTGTTTGT,0.29
25,TATGTCACGTGGTCTT,-0.11

row,Sequence,relative binding free energy [kcal/mol]
1,TACGGCACGTGGTGGG,0.01
2,TTTTTCACGTGAATGG,0.45
3,ACGAGCACGTGGGGTT,-0.2
4,TGATACACGTGTGTTG,0.01
5,ATGGGCACGTGCCAGG,-0.33
6,CATCTCACGTGGGGGG,0.1
7,TGATGCACGTGTTGAG,0.07
8,TGGGGCACGTGGTACT,-0.13
9,GGTGGCACGTGTGTCC,-0.04
10,TGTGCCACGTGAGGGA,0.09
11,TGTGTCACGTGTATGG,0.08
12,GTATTCACGTGTGTTA,0.26
13,GTGGACACGTGTAGGC,0.03
14,GGCGTCACGTGTCGGC,0.28
15,AGTTGCACGTGATGAA,0.09
16,GGGGGCACGTGGAAGG,0.02
17,CTAGGCACGTGGGTGT,-0.25
18,GCCGTCACGTGTGTGG,0.08
19,GTCAACACGTGATGGG,0.31
20,TTGTGCACGTGAGGTA,0.22
21,TTTGTCACGTGACTGG,0.18
22,GTTAACACGTGGGAGC,-0.02
23,GGGGGCACGTGACATT,0.08
24,GGGCGCACGTGTAGTT,0.1
25,AGAAACACGTGCGGGG,-0.07

row,Sequence,relative binding free energy [kcal/mol]
1,TGCATCACGTGATTGG,0.2
2,AAAAGCACGTGTGTTG,-0.2
3,GGGGCCACGTGTACGT,0.04
4,CGTGGCACGTGATTGG,-0.15
5,TCTGGCACGTGAGGGT,0.09
6,CATTGCACGTGCGTGG,-0.07
7,TTGGGCACGTGCGCCG,-0.23
8,TATGGCACGTGAAAGT,0.19
9,TACTTCACGTGAGGGT,0.33
10,CTGTGCACGTGATAGG,-0.12
11,CTGTACACGTGTGGGC,0.19
12,TGGGGCACGTGAGGTC,0.18
13,GGCGTCACGTGTCTGG,0.12
14,TAGAGCACGTGGATGT,-0.11
15,ATGGCCACGTGCCGGG,-0.18
16,ATATGCACGTGTGTGT,-0.04
17,GGGAGCACGTGGTAGA,-0.23
18,GCTGGCACGTGGGTAG,-0.09
19,ACTGTCACGTGGAGGA,0.1
20,GGGGTCACGTGGCCGT,-0.01
21,CCGGACACGTGTAGGG,0.15
22,AAGGTCACGTGAGCTT,0.38
23,CGGGGCACGTGTAGAT,0.12
24,ATTTTCACGTGGCAGC,0.26
25,TTTAGCACGTGGCATA,-0.19

row,Sequence,relative binding free energy [kcal/mol]
1,TGGGTCACGTGGCACG,0.01
2,GGATGCACGTGTGTTG,0.03
3,TTGAGCACGTGTTGGA,0.06
4,CGGAGCACGTGAAGTG,0.31
5,TTGCTCACGTGGGGCT,0.16
6,GGGACCACGTGAGTGT,0.17
7,TTATACACGTGTAGAG,-0.01
8,AATAGCACGTGGTGTT,-0.21
9,TCTAACACGTGTAGTT,0.12
10,CGATTCACGTGGGATG,0.02
11,AATTGCACGTGGGGTT,-0.13
12,TAGGTCACGTGGGCCA,-0.02
13,CATTTCACGTGGTGTT,0.05
14,GGTGACACGTGTTGAA,0.09
15,AAGTACACGTGTTTAA,0.09
16,GTTGGCACGTGGCGAT,-0.02
17,AGTTGCACGTGGGGTA,-0.28
18,AAAGACACGTGTGGAG,0.16
19,ACGCTCACGTGGGGTT,-0.07
20,ATGAGCACGTGTTGAA,-0.09
21,TAGGACACGTGTCGGG,0.13
22,GTGCGCACGTGGTCTG,-0.23
23,CGAAGCACGTGGGGCG,-0.28
24,GTGTACACGTGGGGTC,-0.03
25,TGTGACACGTGGATAA,0.14

row,Sequence,relative binding free energy [kcal/mol]
1,TGGGGCACGTGTTTGA,-0.04
2,TTGAGCACGTGTTTTT,-0.01
3,GCGTTCACGTGGGTAA,0.16
4,CAAGACACGTGTGGGT,-0.09
5,TGCAGCACGTGAGAGG,0.17
6,TGTATCACGTGGTAGT,0.06
7,TAGAGCACGTGGATTT,-0.03
8,GGGGTCACGTGCGTCG,0
9,TGTGACACGTGGGTAA,-0.27
10,GGGTCCACGTGTGGTA,0.28
11,GTGAGCACGTGAGGAG,0.32
12,GTGATCACGTGGAGGA,0.2
13,GGGCTCACGTGGAGTA,0.17
14,GTCGTCACGTGACGGT,0.16
15,AAGTTCACGTGCGGAT,0.22
16,AGGGGCACGTGCTTGC,-0.25
17,GGATGCACGTGTATCT,0.05
18,GAGAGCACGTGGGTGC,-0.22
19,TCGGTCACGTGAAGCG,0.42
20,GTAGACACGTGTTGGC,0.02
21,GATTGCACGTGCTGTG,0.04
